# Test results taken from the supplement of paper PMC8728848.
# The other results are listed elsewhere or left out.
# Tests used:
# Test in all cases: glycan array binding signal (z-score within array); higher = stronger binding
# Conditions in all cases: glycan notation: IUPAC condensed, linker removed
# [1] = target: GlcNAc(b1-3)Gal(b1-3)GalNAc
# How it was run: (§1)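 Glycan array binding is given as a within-array Z-score, which can be read as non-binding when negative. The arrays, 3228 of them, came from the Consortium for Functional Glycomics database and were retained only where the protein sequence was available. Z-scores were averaged across arrays of the same protein sequence at different concentrations or buffers and across linkers.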
# [2] = target: GlcNAc(b1-3)Gal(b1-4)Glc
# How it was run: as §1
# [3] = target: GlcNAc(b1-3)Gal(b1-4)GlcNAc
# How it was run: as §1
# [4] = target: GlcNAc(b1-3)Gal(b1-4)GlcNAc(b1-2)Man(a1-3)[GlcNAc(b1-3)Gal(b1-4)GlcNAc(b1-2)Man(a1-6)]Man(b1-4)GlcNAc(b1-4)GlcNAc
# How it was run: as §1
# [5] = target: GlcNAc(b1-3)Gal(b1-4)GlcNAc(b1-2)Man(a1-3)[GlcNAc(b1-3)Gal(b1-4)GlcNAc(b1-2)Man(a1-6)]Man(b1-4)GlcNAc(b1-4)[Fuc(a1-6)]GlcNAc
# How it was run: as §1
# [6] = target: GlcNAc(b1-3)Gal(b1-4)GlcNAc(b1-2)[GlcNAc(b1-3)Gal(b1-4)GlcNAc(b1-6)]Man(a1-6)[GlcNAc(b1-3)Gal(b1-4)GlcNAc(b1-2)Man(a1-3)]Man(b1-4)GlcNAc(b1-4)GlcNAc
# How it was run: as §1
# [7] = target: GlcNAc(b1-3)Gal(b1-4)GlcNAc(b1-3)Gal(b1-4)GlcNAc
# How it was run: as §1
# [8] = target: GlcNAc(b1-3)Gal(b1-4)GlcNAc(b1-3)Gal(b1-4)GlcNAc(b1-2)Man(a1-3)[GlcNAc(b1-3)Gal(b1-4)GlcNAc(b1-3)Gal(b1-4)GlcNAc(b1-2)Man(a1-6)]Man(b1-4)GlcNAc(b1-4)GlcNAc
# How it was run: as §1
# [9] = target: GlcNAc(b1-3)Gal(b1-4)GlcNAc(b1-3)Gal(b1-4)GlcNAc(b1-2)Man(a1-3)[GlcNAc(b1-3)Gal(b1-4)GlcNAc(b1-3)Gal(b1-4)GlcNAc(b1-2)Man(a1-6)]Man(b1-4)GlcNAc(b1-4)[Fuc(a1-6)]GlcNAc
# How it was run: as §1
# [10] = target: GlcNAc(b1-3)Gal(b1-4)GlcNAc(b1-3)Gal(b1-4)GlcNAc(b1-2)[GlcNAc(b1-3)Gal(b1-4)GlcNAc(b1-3)Gal(b1-4)GlcNAc(b1-6)]Man(a1-6)[GlcNAc(b1-3)Gal(b1-4)GlcNAc(b1-3)Gal(b1-4)GlcNAc(b1-2)Man(a1-3)]Man(b1-4)GlcNAc(b1-4)[Fuc(a1-6)]GlcNAc
# How it was run: as §1
# [11] = target: GlcNAc(b1-3)Gal(b1-4)GlcNAc(b1-3)Gal(b1-4)GlcNAc(b1-3)Gal(b1-4)GlcNAc(b1-2)Man(a1-3)[GlcNAc(b1-3)Gal(b1-4)GlcNAc(b1-3)Gal(b1-4)GlcNAc(b1-3)Gal(b1-4)GlcNAc(b1-2)Man(a1-6)]Man(b1-4)GlcNAc(b1-4)GlcNAc
# How it was run: as §1
# [12] = target: GlcNAc(b1-3)Gal(b1-4)GlcNAc(b1-3)Gal(b1-4)GlcNAc(b1-3)Gal(b1-4)GlcNAc(b1-2)Man(a1-3)[GlcNAc(b1-3)Gal(b1-4)GlcNAc(b1-3)Gal(b1-4)GlcNAc(b1-3)Gal(b1-4)GlcNAc(b1-2)Man(a1-6)]Man(b1-4)GlcNAc(b1-4)[Fuc(a1-6)]GlcNAc
# How it was run: as §1
# [13] = target: GlcNAc(b1-3)Gal(b1-4)GlcNAc(b1-3)Gal(b1-4)GlcNAc(b1-3)Gal(b1-4)GlcNAc(b1-2)[GlcNAc(b1-3)Gal(b1-4)GlcNAc(b1-3)Gal(b1-4)GlcNAc(b1-3)Gal(b1-4)GlcNAc(b1-6)]Man(a1-6)[GlcNAc(b1-3)Gal(b1-4)GlcNAc(b1-3)Gal(b1-4)GlcNAc(b1-3)Gal(b1-4)GlcNAc(b1-2)Man(a1-3)]Man(b1-4)GlcNAc(b1-4)[Fuc(a1-6)]GlcNAc
# How it was run: as §1
# [14] = target: GlcNAc(b1-3)Gal(b1-4)GlcNAc(b1-3)Gal(b1-4)GlcNAc(b1-3)Gal(b1-4)GlcNAc(b1-3)Gal(b1-4)GlcNAc(b1-2)Man(a1-3)[GlcNAc(b1-3)Gal(b1-4)GlcNAc(b1-3)Gal(b1-4)GlcNAc(b1-3)Gal(b1-4)GlcNAc(b1-3)Gal(b1-4)GlcNAc(b1-2)Man(a1-6)]Man(b1-4)GlcNAc(b1-4)GlcNAc
# How it was run: as §1
# [15] = target: GlcNAc(b1-3)Gal(b1-4)GlcNAc(b1-3)Gal(b1-4)GlcNAc(b1-3)Gal(b1-4)GlcNAc(b1-3)Gal(b1-4)GlcNAc(b1-2)Man(a1-3)[GlcNAc(b1-3)Gal(b1-4)GlcNAc(b1-3)Gal(b1-4)GlcNAc(b1-3)Gal(b1-4)GlcNAc(b1-3)Gal(b1-4)GlcNAc(b1-2)Man(a1-6)]Man(b1-4)GlcNAc(b1-4)[Fuc(a1-6)]GlcNAc
# How it was run: as §1
# [16] = target: GlcNAc(b1-3)Gal(b1-4)GlcNAc(b1-3)Gal(b1-4)GlcNAc(b1-3)Gal(b1-4)GlcNAc(b1-3)Gal(b1-4)GlcNAc(b1-2)[GlcNAc(b1-3)Gal(b1-4)GlcNAc(b1-3)Gal(b1-4)GlcNAc(b1-3)Gal(b1-4)GlcNAc(b1-3)Gal(b1-4)GlcNAc(b1-6)]Man(a1-6)[GlcNAc(b1-3)Gal(b1-4)GlcNAc(b1-3)Gal(b1-4)GlcNAc(b1-3)Gal(b1-4)GlcNAc(b1-3)Gal(b1-4)GlcNAc(b1-2)Man(a1-3)]Man(b1-4)GlcNAc(b1-4)[Fuc(a1-6)]GlcNAc
# How it was run: as §1
# [17] = target: GlcNAc(b1-3)Gal(b1-4)GlcNAc(b1-3)Gal(b1-4)GlcNAc(b1-3)GalNAc
# How it was run: as §1
# [18] = target: GlcNAc(b1-3)Gal(b1-4)GlcNAc(b1-3)GalNAc
# How it was run: as §1
# [19] = target: GlcNAc(b1-3)Gal(b1-4)GlcNAc(b1-3)[GlcNAc(b1-3)Gal(b1-4)GlcNAc(b1-3)]GalNAc
# How it was run: as §1
# [20] = target: GlcNAc(b1-3)Gal(b1-4)GlcNAc(b1-6)[Gal(b1-3)]GalNAc
# How it was run: as §1
# [21] = target: GlcNAc(b1-3)Gal(b1-4)GlcNAc(b1-6)[GlcNAc(b1-3)Gal(b1-3)]GalNAc
# How it was run: as §1
# [22] = target: GlcNAc(b1-3)Gal(b1-4)GlcNAc(b1-6)[GlcNAc(b1-3)]Gal(b1-4)GlcNAc
# How it was run: as §1
# [23] = target: GlcNAc(b1-3)GalNAc
# How it was run: as §1
# [24] = target: GlcNAc(b1-3)Man
# How it was run: as §1
# [25] = target: GlcNAc(b1-3)[GlcNAc(b1-4)][GlcNAc(b1-6)]GlcNAc
# How it was run: as §1
# [26] = target: GlcNAc(b1-3)[GlcNAc(b1-6)]Gal(b1-4)GlcNAc
# How it was run: as §1
# [27] = target: GlcNAc(b1-3)[GlcNAc(b1-6)]GalNAc
# How it was run: as §1
# [28] = target: GlcNAc(b1-4)Gal(b1-4)GlcNAc
# How it was run: as §1
# [29] = target: GlcNAc(b1-4)GlcNAc
# How it was run: as §1
# [30] = target: GlcNAc(b1-4)GlcNAc(b1-4)GlcNAc
# How it was run: as §1
# [31] = target: GlcNAc(b1-4)GlcNAc(b1-4)GlcNAc(b1-4)GlcNAc(b1-4)GlcNAc
# How it was run: as §1
# [32] = target: GlcNAc(b1-4)GlcNAc(b1-4)GlcNAc(b1-4)GlcNAc(b1-4)GlcNAc(b1-4)GlcNAc
# How it was run: as §1
# [33] = target: GlcNAc(b1-4)[GlcNAc(b1-6)]GalNAc
# How it was run: as §1
# [34] = target: GlcNAc(b1-6)Gal(b1-4)GlcNAc
# How it was run: as §1
# [35] = target: GlcNAc(b1-6)GalNAc
# How it was run: as §1
# [36] = target: GlcNAc6S(b1-3)Gal(b1-4)GlcNAc
# How it was run: as §1
# [37] = target: Kdn(a2-3)Gal(b1-3)GalNAc
# How it was run: as §1
binder,measurement,setting,value
"AT1G73650(15) (Arabidopsis thaliana), F4HRY1 (protein) MGTVLDSHFLALTAIVTVIYQFIFFVITALFKFDQVTDFAGSTNFVILAVLTLVLKASWHFRQIVLTLLVVVWGLRLGIFLLMETRILQWGEDRRFDEQRGNIVRLIIFWTLQAVWVWTVSLPLTLVNASDGGGSLKPADVIGWTMETWVFGFLIEAAADQQKLSFKNSPENRGKWCDVGVWKYSRHPNYFGEMETLLWWGIFVAASPVLEGAEYLVIFGPLFLTLLLLFVSGIPLLEASADKKHGNSGAYRSYKKTTSPLILFPRGVYGNLPGWFKTVFLFEFPFYSRNLPQEGRLQNSKEKEVKDD",glycan array binding signal (z-score),[1],0.587
same,glycan array binding signal (z-score),[2],-0.31
same,glycan array binding signal (z-score),[3],-0.522
same,glycan array binding signal (z-score),[4],-0.358
same,glycan array binding signal (z-score),[5],-0.144
same,glycan array binding signal (z-score),[6],-0.133
same,glycan array binding signal (z-score),[7],-0.505
same,glycan array binding signal (z-score),[8],0.308
same,glycan array binding signal (z-score),[9],-0.505
same,glycan array binding signal (z-score),[10],-0.333
same,glycan array binding signal (z-score),[11],-0.334
same,glycan array binding signal (z-score),[12],-0.04
same,glycan array binding signal (z-score),[13],0.008
same,glycan array binding signal (z-score),[14],0.989
same,glycan array binding signal (z-score),[15],-0.574
same,glycan array binding signal (z-score),[16],0.192
same,glycan array binding signal (z-score),[17],-0.375
same,glycan array binding signal (z-score),[18],-0.774
same,glycan array binding signal (z-score),[19],-0.581
same,glycan array binding signal (z-score),[20],0.716
same,glycan array binding signal (z-score),[21],-0.702
same,glycan array binding signal (z-score),[22],-0.384
same,glycan array binding signal (z-score),[23],0.228
same,glycan array binding signal (z-score),[24],-0.038
same,glycan array binding signal (z-score),[25],-0.48
same,glycan array binding signal (z-score),[26],-0.355
same,glycan array binding signal (z-score),[27],0.394
same,glycan array binding signal (z-score),[28],-0.398
same,glycan array binding signal (z-score),[29],-0.624
same,glycan array binding signal (z-score),[30],-0.301
same,glycan array binding signal (z-score),[31],-0.002
same,glycan array binding signal (z-score),[32],-0.502
same,glycan array binding signal (z-score),[33],-0.41
same,glycan array binding signal (z-score),[34],-0.271
same,glycan array binding signal (z-score),[35],-0.154
same,glycan array binding signal (z-score),[36],-0.641
same,glycan array binding signal (z-score),[37],-0.526
